T1: RBFOX1 RRM (Homo sapiens, UniProt Q9NWB1 109-208)
T1 sequence: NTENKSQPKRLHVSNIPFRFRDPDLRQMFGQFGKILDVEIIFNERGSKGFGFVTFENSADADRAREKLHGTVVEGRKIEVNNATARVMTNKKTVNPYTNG

B1: UUAAGUA (DNA:RNA)
RNA: GGGAGACCGGAAUUCAGAUUGUCCUUAAGUAUUAAAUCCCGUCGUAGCCACCA
DNA 1: CAATCTGAATTCCGGTCTCCC
DNA 2: TGGTGGCTACGACGGGATT
B2: AUGGCGU (DNA:RNA)
RNA: B1 RNA with U25A, A27G, A28G, G29C, U30G, A31U
DNA 1: CAATCTGAATTCCGGTCTCCC
DNA 2: TGGTGGCTACGACGGGATT
B3: GGCCACG (DNA:RNA)
RNA: GGGAGACCGGAAUUCAGAUUGUCCGGCCACGUUAAAUCCCGUCGUAGCCACCA
DNA 1: CAATCTGAATTCCGGTCTCCC
DNA 2: TGGTGGCTACGACGGGATT
B4: CUUACUA (DNA:RNA)
RNA: B1 RNA with U25C, A27U, G29C
DNA 1: CAATCTGAATTCCGGTCTCCC
DNA 2: TGGTGGCTACGACGGGATT
B5: GCAACCA (DNA:RNA)
RNA: B1 RNA with U25G, U26C, G29C, U30C
DNA 1: CAATCTGAATTCCGGTCTCCC
DNA 2: TGGTGGCTACGACGGGATT
B6: GCCUGUG (DNA:RNA)
RNA: B3 RNA with G26C, C28U, A29G, C30U
DNA 1: CAATCTGAATTCCGGTCTCCC
DNA 2: TGGTGGCTACGACGGGATT
B7: CUGUCAG (DNA:RNA)
RNA: B3 RNA with G25C, G26U, C27G, C28U, A29C, C30A
DNA 1: CAATCTGAATTCCGGTCTCCC
DNA 2: TGGTGGCTACGACGGGATT
B8: AUUUCGC (DNA:RNA)
RNA: B1 RNA with U25A, A27U, A28U, G29C, U30G, A31C
DNA 1: CAATCTGAATTCCGGTCTCCC
DNA 2: TGGTGGCTACGACGGGATT
B9: GUGCUAU (DNA:RNA)
RNA: B3 RNA with G26U, C27G, A29U, C30A, G31U
DNA 1: CAATCTGAATTCCGGTCTCCC
DNA 2: TGGTGGCTACGACGGGATT
B10: UCACCUC (DNA:RNA)
RNA: B1 RNA with U26C, A28C, G29C, A31C
DNA 1: CAATCTGAATTCCGGTCTCCC
DNA 2: TGGTGGCTACGACGGGATT
B11: GGGCUAA (DNA:RNA)
RNA: B3 RNA with C27G, A29U, C30A, G31A
DNA 1: CAATCTGAATTCCGGTCTCCC
DNA 2: TGGTGGCTACGACGGGATT
B12: AUGAAAU (DNA:RNA)
RNA: B1 RNA with U25A, A27G, G29A, U30A, A31U
DNA 1: CAATCTGAATTCCGGTCTCCC
DNA 2: TGGTGGCTACGACGGGATT
B13: CGUCACC (DNA:RNA)
RNA: B3 RNA with G25C, C27U, G31C
DNA 1: CAATCTGAATTCCGGTCTCCC
DNA 2: TGGTGGCTACGACGGGATT
B14: AAUGCCC (DNA:RNA)
RNA: B3 RNA with G25A, G26A, C27U, C28G, A29C, G31C
DNA 1: CAATCTGAATTCCGGTCTCCC
DNA 2: TGGTGGCTACGACGGGATT
B15: GAUCAUU (DNA:RNA)
RNA: B3 RNA with G26A, C27U, C30U, G31U
DNA 1: CAATCTGAATTCCGGTCTCCC
DNA 2: TGGTGGCTACGACGGGATT
B16: UGGCCGU (DNA:RNA)
RNA: B3 RNA with G25U, C27G, A29C, C30G, G31U
DNA 1: CAATCTGAATTCCGGTCTCCC
DNA 2: TGGTGGCTACGACGGGATT
B17: UAAACCC (DNA:RNA)
RNA: B1 RNA with U26A, G29C, U30C, A31C
DNA 1: CAATCTGAATTCCGGTCTCCC
DNA 2: TGGTGGCTACGACGGGATT
B18: CGAAGUA (DNA:RNA)
RNA: B1 RNA with U25C, U26G
DNA 1: CAATCTGAATTCCGGTCTCCC
DNA 2: TGGTGGCTACGACGGGATT
B19: AAAGAGC (DNA:RNA)
RNA: B3 RNA with G25A, G26A, C27A, C28G, C30G, G31C
DNA 1: CAATCTGAATTCCGGTCTCCC
DNA 2: TGGTGGCTACGACGGGATT
B20: UAGCUCA (DNA:RNA)
RNA: B3 RNA with G25U, G26A, C27G, A29U, G31A
DNA 1: CAATCTGAATTCCGGTCTCCC
DNA 2: TGGTGGCTACGACGGGATT
B21: AUUAAAU (DNA:RNA)
RNA: B1 RNA with U25A, A27U, G29A, U30A, A31U
DNA 1: CAATCTGAATTCCGGTCTCCC
DNA 2: TGGTGGCTACGACGGGATT
B22: UUUCCAA (DNA:RNA)
RNA: B1 RNA with A27U, A28C, G29C, U30A
DNA 1: CAATCTGAATTCCGGTCTCCC
DNA 2: TGGTGGCTACGACGGGATT
B23: UCUGACC (DNA:RNA)
RNA: B3 RNA with G25U, G26C, C27U, C28G, G31C
DNA 1: CAATCTGAATTCCGGTCTCCC
DNA 2: TGGTGGCTACGACGGGATT
B24: AUGGUUG (DNA:RNA)
RNA: B1 RNA with U25A, A27G, A28G, G29U, A31G
DNA 1: CAATCTGAATTCCGGTCTCCC
DNA 2: TGGTGGCTACGACGGGATT
B25: AACAAGC (DNA:RNA)
RNA: B3 RNA with G25A, G26A, C28A, C30G, G31C
DNA 1: CAATCTGAATTCCGGTCTCCC
DNA 2: TGGTGGCTACGACGGGATT
B26: CGGAAUG (DNA:RNA)
RNA: B3 RNA with G25C, C27G, C28A, C30U
DNA 1: CAATCTGAATTCCGGTCTCCC
DNA 2: TGGTGGCTACGACGGGATT
B27: AAUUAGA (DNA:RNA)
RNA: B3 RNA with G25A, G26A, C27U, C28U, C30G, G31A
DNA 1: CAATCTGAATTCCGGTCTCCC
DNA 2: TGGTGGCTACGACGGGATT
B28: GACCGAG (DNA:RNA)
RNA: B3 RNA with G26A, A29G, C30A
DNA 1: CAATCTGAATTCCGGTCTCCC
DNA 2: TGGTGGCTACGACGGGATT
B29: GCCCACG (DNA:RNA)
RNA: B3 RNA with G26C
DNA 1: CAATCTGAATTCCGGTCTCCC
DNA 2: TGGTGGCTACGACGGGATT
B30: UCACGUG (DNA:RNA)
RNA: B1 RNA with U26C, A28C, A31G
DNA 1: CAATCTGAATTCCGGTCTCCC
DNA 2: TGGTGGCTACGACGGGATT
B31: GAGCCGA (DNA:RNA)
RNA: B3 RNA with G26A, C27G, A29C, C30G, G31A
DNA 1: CAATCTGAATTCCGGTCTCCC
DNA 2: TGGTGGCTACGACGGGATT

For 31 molecules, binding signal results are on record in PMC9911399, “Two distinct binding modes provide the RNA-binding protein RbFox with extraordinary sequence specificity”.

Numbering of substitutions follows the chain as printed; changes in the protein carry UniProt numbers. The list shows a part of the results.

The experiment deals with T1, RBFOX1 RRM. The experiment is described as follows: EMSA; HiTS-Eq, 1 nM pool, 10 min; buffer printed only for the single-RNA assays: 10 mM Tris pH 7.5, 150 mM NaCl, 3.4 mM EDTA, 0.001% NP-40, 30 C. As to conditions: tags: His6 N-terminal (pET28a); label: 5' 32P. In outline:
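Purified RbFox RRM (wild type or mutant) was equilibrated for 10 min in 50 µL with 1 nM of a 5′-radiolabelled pool of RNA with 7 randomized nucleotides, its flanks annealed to DNA oligonucleotides, across increasing protein concentrations. Free RNA was separated by 8% native PAGE, excised, reverse-transcribed, PCR-barcoded and sequenced on an Illumina HiSeq 2500. Relative association constants came from read-count changes of each variant against the control reaction, normalised to the cognate motif.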
As to B1, the binding signal was 0.01 KA relative to UGCAUGU. Turning to B2, the binding signal is 0.0199 KA relative to UGCAUGU. As for B3, the binding signal was 0.00911 KA relative to UGCAUGU. For B4, the binding signal is 0.00319 KA relative to UGCAUGU.

On to B5, for which the binding signal was 0.004 KA relative to UGCAUGU.

Regarding B6, the binding signal is 0.034 KA relative to UGCAUGU. B7: the binding signal is 0.015 KA relative to UGCAUGU.

Take B8: the binding signal is 0.00798 KA relative to UGCAUGU. In the case of B9 it was 0.0156 KA relative to UGCAUGU. For B10, the binding signal is 0.00109 KA relative to UGCAUGU. Regarding B11, the binding signal is 0.0063 KA relative to UGCAUGU. On to B12, for which the binding signal was 0.00417 KA relative to UGCAUGU. In the case of B13, the binding signal was 0.00293 KA relative to UGCAUGU. As to B14, the binding signal was 0.00474 KA relative to UGCAUGU. On to B15, for which the binding signal was 0.0063 KA relative to UGCAUGU. In the case of B16 it was 0.023 KA relative to UGCAUGU.

For B17, the binding signal was 0.000267 KA relative to UGCAUGU.

Regarding B18, the binding signal is 0.00518 KA relative to UGCAUGU. Consider B19, for which the binding signal was 0.00412 KA relative to UGCAUGU. B20: the binding signal is 0.00897 KA relative to UGCAUGU. As for B21, the binding signal was 0.000447 KA relative to UGCAUGU. As to B22, the binding signal was 0.00493 KA relative to UGCAUGU. On to B23, for which the binding signal was 0.0115 KA relative to UGCAUGU.

On to B24, for which the binding signal is 0.0212 KA relative to UGCAUGU. For B25 the value was 0.00363 KA relative to UGCAUGU. Take B26: the binding signal was 0.0596 KA relative to UGCAUGU. In the case of B27 it was 0.00753 KA relative to UGCAUGU; in that of B28, 0.0115 KA relative to UGCAUGU. For B29 the value was 0.00887 KA relative to UGCAUGU; for B30, 0.0117 KA relative to UGCAUGU; for B31, 0.0102 KA relative to UGCAUGU.
